From the supplement of paper PMC3334620
Over roughly 33,000 sequences, “E-score (-0.5 to 0.5)” has its median near -0.012; the highest 2% begin near 0.29. Some of the results follow.

What follows are sequences tested against T1, Ybr033w (UniProt P38073) (assay: PBM E-score (8-mer binding enrichment) (E-score (-0.5 to 0.5)); higher = stronger / more preferred TF binding; most listed sequences are background and not binding sites). Details: protein concentration: 200 nM; construct: GST-full length.
T1 sequence: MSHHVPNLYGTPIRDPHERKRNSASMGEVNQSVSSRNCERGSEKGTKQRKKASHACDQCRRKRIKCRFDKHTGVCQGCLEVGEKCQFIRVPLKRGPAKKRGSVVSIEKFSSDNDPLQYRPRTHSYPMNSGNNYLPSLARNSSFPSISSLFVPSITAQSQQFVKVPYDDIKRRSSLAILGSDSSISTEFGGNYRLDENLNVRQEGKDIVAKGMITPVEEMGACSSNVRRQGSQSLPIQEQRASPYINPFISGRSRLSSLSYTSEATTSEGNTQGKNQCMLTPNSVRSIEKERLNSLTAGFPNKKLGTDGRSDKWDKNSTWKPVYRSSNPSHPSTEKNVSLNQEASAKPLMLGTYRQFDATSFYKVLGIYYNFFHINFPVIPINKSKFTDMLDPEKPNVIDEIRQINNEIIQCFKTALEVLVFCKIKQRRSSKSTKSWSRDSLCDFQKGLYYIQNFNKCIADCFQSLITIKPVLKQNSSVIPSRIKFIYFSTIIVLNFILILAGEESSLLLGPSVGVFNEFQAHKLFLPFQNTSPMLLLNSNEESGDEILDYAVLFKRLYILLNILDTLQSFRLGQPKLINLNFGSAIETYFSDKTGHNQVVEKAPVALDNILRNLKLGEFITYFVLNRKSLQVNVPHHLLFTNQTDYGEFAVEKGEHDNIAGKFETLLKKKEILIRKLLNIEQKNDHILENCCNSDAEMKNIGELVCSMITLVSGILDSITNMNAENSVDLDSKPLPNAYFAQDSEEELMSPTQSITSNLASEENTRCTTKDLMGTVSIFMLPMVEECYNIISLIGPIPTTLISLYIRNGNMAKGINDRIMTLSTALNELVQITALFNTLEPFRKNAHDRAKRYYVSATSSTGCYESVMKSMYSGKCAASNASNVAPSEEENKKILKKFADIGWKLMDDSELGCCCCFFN
Method: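 Universal 'all 10-mer' protein binding microarrays (Agilent AMADID 015681) probed with GST-tagged S. cerevisiae TFs (full-length or DBD) made by in vitro transcription/translation (PURExpress), about 100-200 nM. Bound TF was detected with fluorescent anti-GST. Each ungapped 8-mer (which stands for itself and its reverse complement) is scored by the PBM enrichment score (E-score), a modified Wilcoxon-Mann-Whitney statistic from -0.5 to +0.5, computed with the Universal PBM Analysis Suite. Scale: above 0.35 generally sequence-specific binding.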

Compared with AACATCGA, ACAGGCTC is lower in “PBM E-score” value: 0.134 for the first, -0.113 for the second.

Compared with ATTGCTAG, GGAGCTCA is lower in “PBM E-score” value: -0.00031 for the first, -0.243 for the second.

Going from GGGGTAAC to CGGTTCAA, the “PBM E-score” value rises from -0.235 to -0.0607.

Going from AGCGTGGA to GAGTCTAA, the “PBM E-score” value rises from -0.0258 to 0.0395.

Going from CGGCTACG to ACAAAGGG, the “PBM E-score” value falls from -0.146 to -0.181.

Compared with CGACAGAA, CGTGTTAA is higher in “PBM E-score” value: 0.181 for the first, 0.198 for the second.

First: GGCACACA
Second: CATCCGAG
The “PBM E-score” value of the first is lower: -0.112 for the first, -0.0881 for the second.

Compared with CGTGCCAC, GCTTTCAA is higher in “PBM E-score” value: -0.283 for the first, 0.185 for the second.

Compared with AGAAGTCA, AGGCGCGC is lower in “PBM E-score” value: -0.02 for the first, -0.142 for the second.

Going from CTCCTGCA to ATACTGTC, the “PBM E-score” value rises from -0.145 to 0.0114.

Going from ATGTTTAA to AGAGAACG, the “PBM E-score” value falls from 0.218 to 0.0819.

First: CCGTCGAG
Second: GCGCCCCC
The “PBM E-score” value of the first is higher: 0.102 for the first, -0.392 for the second.

Compared with ATTTTGCG, AAATAATT is higher in “PBM E-score” value: 0.275 for the first, 0.388 for the second.

Going from AAGGGTTA to AGTAAAAA, the “PBM E-score” value rises from 0.00598 to 0.193.

Going from GCTCTGTA to ATCTCCTC, the “PBM E-score” value falls from -0.00345 to -0.0758.

First: CTACGCTC
Second: AGTAGGGA
The “PBM E-score” value of the first is lower: -0.166 for the first, -0.0323 for the second.

Going from ACGGGGGG to AATATTCC, the “PBM E-score” value rises from -0.459 to 0.45.

Compared with AATGAACC, ACCACCGT is lower in “PBM E-score” value: 0.0438 for the first, -0.126 for the second.

Going from CGGCGCAC to CCGAATGA, the “PBM E-score” value rises from -0.0026 to 0.0806.

Going from AGCCTCAC to ATGCGCAT, the “PBM E-score” value rises from -0.111 to 0.2.

Compared with ATCGGGCG, AATAGTAC is higher in “PBM E-score” value: -0.162 for the first, 0.129 for the second.

Compared with CGATGAGC, CGTACGAG is higher in “PBM E-score” value: -0.153 for the first, 0.0796 for the second.

First: CGTTTGAA
Second: CTATGAAG
The “PBM E-score” value of the first is higher: 0.0628 for the first, 0.0395 for the second.

Compared with AAGGTGGC, GCGTGAAC is lower in “PBM E-score” value: -0.0461 for the first, -0.0541 for the second.

First: CAAATCGA
Second: ATACGTTC
The “PBM E-score” value of the first is higher: 0.112 for the first, -0.118 for the second.

Going from ACTCTATC to GGTGCTTA, the “PBM E-score” value falls from -0.0216 to -0.116.

First: CCGCAATA
Second: CAACAAAG
The “PBM E-score” value of the first is lower: 0.191 for the first, 0.235 for the second.

Going from ACCCGGCA to GACGCCGC, the “PBM E-score” value rises from -0.108 to -0.0979.

First: GATACGAA
Second: ACAGTACG
The “PBM E-score” value of the first is higher: 0.165 for the first, 0.074 for the second.

Going from AACTCCTA to AGATATTG, the “PBM E-score” value rises from 0.149 to 0.185.

First: GAGGACTC
Second: CCGTTTGC
The “PBM E-score” value of the first is lower: -0.345 for the first, -0.129 for the second.

First: GTAGTTCA
Second: CAAGGCAC
The “PBM E-score” value of the first is higher: 0.202 for the first, -0.134 for the second.

Compared with CTGTGGAC, CCCCGGGC is lower in “PBM E-score” value: -0.177 for the first, -0.302 for the second.

Going from GTACCTGA to TATAAGCA, the “PBM E-score” value rises from -0.00902 to 0.141.

Going from AAGCACTG to CAATCCTC, the “PBM E-score” value falls from 0.162 to 0.0592.

Going from AATATGCT to ACGAATCA, the “PBM E-score” value falls from 0.187 to 0.136.

Compared with CGGCCATC, TAATGTGA is higher in “PBM E-score” value: -0.294 for the first, 0.223 for the second.

First: ATGGAGCC
Second: AGAAGTTG
The “PBM E-score” value of the first is lower: -0.117 for the first, 0.0396 for the second.

First: AGTGGGGG
Second: AATACTGT
The “PBM E-score” value of the first is lower: -0.395 for the first, 0.234 for the second.

Compared with AACCTGAT, CACCGGCG is lower in “PBM E-score” value: 0.104 for the first, -0.144 for the second.

First: GGCAGAGA
Second: AATATAAG
The “PBM E-score” value of the first is lower: -0.0846 for the first, 0.295 for the second.

Going from CCAGCTTA to TGACGCAA, the “PBM E-score” value falls from -0.0186 to -0.193.

Going from AACTGCAT to ATCCGGAT, the “PBM E-score” value rises from 0.16 to 0.166.

Compared with ATGTCCAG, AGAGATGC is lower in “PBM E-score” value: -0.0268 for the first, -0.106 for the second.

Going from AGAATTTC to ATCCGGTA, the “PBM E-score” value falls from 0.0968 to 0.0524.

First: ACAACCCT
Second: ATTTGAAA
The “PBM E-score” value of the first is lower: -0.169 for the first, 0.232 for the second.

First: GGATCGAC
Second: ACCGTACG
The “PBM E-score” value of the first is higher: 0.0299 for the first, -0.142 for the second.

Going from CCAAAGGA to ACATCAAA, the “PBM E-score” value rises from -0.14 to 0.121.

First: CCAGGTAG
Second: CAGTCCAC
The “PBM E-score” value of the first is lower: -0.0963 for the first, -0.0868 for the second.

First: CTTCAAAG
Second: ATCAGGAT
The “PBM E-score” value of the first is lower: 0.0507 for the first, 0.139 for the second.

Going from GCTTATCC to CAATTCGA, the “PBM E-score” value rises from -0.00747 to 0.104.

Compared with ATGTACAG, CGACGTAG is lower in “PBM E-score” value: -0.0484 for the first, -0.223 for the second.

Going from CAGTTTTA to ACTAAAGA, the “PBM E-score” value falls from 0.225 to 0.0228.

Going from ACCCTAGA to AGACGCAG, the “PBM E-score” value falls from 0.00118 to -0.133.

First: CTTACCGC
Second: CGTGAGGA
The “PBM E-score” value of the first is higher: -0.0405 for the first, -0.0879 for the second.

First: ACTCAACA
Second: GGACCGCA
The “PBM E-score” value of the first is higher: 0.146 for the first, -0.247 for the second.

Going from CTACCAAC to AGTTACCC, the “PBM E-score” value falls from 0.154 to -0.117.

Going from GACGCTGC to GCCAATGA, the “PBM E-score” value rises from -0.213 to -0.163.

First: GCCAGTAC
Second: CTTAAACA
The “PBM E-score” value of the first is lower: -0.0841 for the first, 0.104 for the second.

Going from CTAGGGGC to CTAGACTA, the “PBM E-score” value rises from -0.291 to -0.019.

Compared with GACTGGAC, ACTACTGG is higher in “PBM E-score” value: -0.343 for the first, 0.017 for the second.

First: ATCGAGGG
Second: CGCAACCC
The “PBM E-score” value of the first is lower: -0.255 for the first, -0.0745 for the second.

Compared with CTGTCAGC, CGAATGCC is lower in “PBM E-score” value: 0.0147 for the first, -0.176 for the second.

Going from CCTCATCG to GAGGTAGA, the “PBM E-score” value falls from -0.0884 to -0.197.

First: ATGCCGCG
Second: CTTTAGTC
The “PBM E-score” value of the first is higher: 0.00396 for the first, -0.181 for the second.

First: ATAACCGC
Second: ATCAGGCG
The “PBM E-score” value of the first is higher: 0.051 for the first, 0.0289 for the second.

First: AACCCTTG
Second: AATGCACA
The “PBM E-score” value of the first is lower: -0.0587 for the first, -0.0262 for the second.

First: CATCGGAA
Second: AGCTAATA
The “PBM E-score” value of the first is higher: 0.25 for the first, 0.078 for the second.

First: GTGGAAAC
Second: ACAGGTCT
The “PBM E-score” value of the first is higher: -0.0663 for the first, -0.0687 for the second.

Going from CATAAACA to CTAGGTTA, the “PBM E-score” value falls from 0.262 to 0.0226.

First: GAGTACAC
Second: CGTTTAGC
The “PBM E-score” value of the first is higher: 0.00128 for the first, -0.0419 for the second.

First: ATTAGCGG
Second: AAATTGAG
The “PBM E-score” value of the first is lower: 0.0274 for the first, 0.126 for the second.

Compared with CGCTTTCC, CAGCCAAA is higher in “PBM E-score” value: -0.204 for the first, 0.18 for the second.

Compared with AAGTGGTG, CCGAGTCG is lower in “PBM E-score” value: -0.0434 for the first, -0.186 for the second.

Going from AACCTGCG to TAACGGCA, the “PBM E-score” value rises from -0.218 to -0.11.

Going from ACACTCAC to ACTCATGC, the “PBM E-score” value falls from 0.0907 to -0.112.

First: ACTCTTAA
Second: CCACGTGC
The “PBM E-score” value of the first is higher: -0.0552 for the first, -0.127 for the second.

Going from GACTGGCC to AAGACTAC, the “PBM E-score” value rises from -0.14 to -0.0766.

Going from GCATCAAA to CCCACTAC, the “PBM E-score” value falls from 0.183 to 0.00712.

Going from ATAGACTA to ATCCAAGC, the “PBM E-score” value falls from 0.206 to -0.0241.

First: AAGCAAGT
Second: CATCTACA
The “PBM E-score” value of the first is higher: 0.0784 for the first, 0.0525 for the second.

First: CCGTAAGC
Second: ACAAATCC
The “PBM E-score” value of the first is lower: -0.0469 for the first, 0.24 for the second.

Compared with AACACGGG, GGGTCATA is lower in “PBM E-score” value: -0.0541 for the first, -0.143 for the second.

Going from GTGGTCGA to AGATCCTA, the “PBM E-score” value rises from -0.198 to 0.0138.

First: GGCGGCTA
Second: CCTCGCCA
The “PBM E-score” value of the first is higher: -0.244 for the first, -0.272 for the second.

Going from AGACGCAC to CCACGTGG, the “PBM E-score” value falls from -0.0525 to -0.454.
